{"source": "PubChem BioAssay AID493208", "about": "(National Center for Advancing Translational Sciences (NCATS), 2011)", "note": "Hit rate of the full screen: of about 44,000 compounds, about 340 (0.77%) were called active. Inconclusive results (about 5%) are left out. The call rests on the fitted dose curve; in most records, active means well fitted inhibition curve with a large enough effect; inconclusive means small, poorly fitted or top-dose-only effect; inactive means flat fitted curve, though single readings scatter. Some of the results follow.", "data": [{"experiment": "Acumen qHTS Assay for Inhibitors of the mTORC1 Signaling Pathway in MEF (Tsc2-/-, p53-/-) Cells: Sytravon;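 further: plate controls were DMSO for no effect and rapamycin for full effect; nearly all actives have a fitted effect of over 50% in size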", "conditions": "phospho-rpS6 immunofluorescence/PI, 24 h; series mostly up to 38.3 µM; activity change, negative = inhibition: at the top concentration", "method_in_brief": "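Read-out: phospho-S6 Alexa-488 intensity over PI intensity per well, scored as % active cells using thresholds from rapamycin (7.5 nM) and DMSO controls. Tsc2-/-, p53-/- MEFs exposed to compound for 24 h; PI cell count recorded as viability.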", "values": [{"smiles": "Cc1ccccc1Cn1c(=O)n(CCC(=O)NCc2ccco2)c(=O)c2sccc21", "activity change, negative = inhibition": "inactive: -4.38%"}, {"smiles": "CC(C)Nc1nc2c(-c3cccc(Br)c3)nnn2c2ccccc12", "activity change, negative = inhibition": "inactive: -9.95%"}, {"smiles": "Cc1ccc(NC(=O)CSc2nc(-c3ccco3)nc3cc(=O)[nH]n23)cc1", "activity change, negative = inhibition": "inactive: 3.16%"}, {"smiles": "COc1ccccc1NC(=O)C1=C(C)Nc2nc(-c3ccco3)nn2C1c1ccccc1F", "note": "(stereo not drawn)", "activity change, negative = inhibition": "inactive: -19.8%"}, {"smiles": "CCCc1cc(=O)[nH]c(Nc2ccc(OCC)cc2)n1", "activity change, negative = inhibition": "inactive: -6.57%"}, {"smiles": "Cc1cccc(S(=O)(=O)c2cn(C)c3cc(N4CCN(c5ccccc5)CC4)c(F)cc3c2=O)c1", "activity change, negative = inhibition": "inactive: 0.329%"}, {"smiles": "Cc1ccc(Cn2c(C)c3cnn(CC(=O)NCCc4ccc(Cl)cc4)c(=O)c3c2C)cc1", "activity change, negative = inhibition": "inactive: -3.08%"}, {"smiles": "COc1cccc(CCNC(=O)c2cnc3sc(N4CCOCC4)nn3c2=O)c1", "activity change, negative = inhibition": "inactive: -10%"}, {"smiles": "CCCNC(=O)CN1CCN(c2ccc(NC(=O)c3ccc(OC)cc3)cc2C(=O)O)CC1", "activity change, negative = inhibition": "inactive: -2.52%"}, {"smiles": "COc1ccc(CNC(=O)c2ccc(NC(=O)N3CCSc4ncccc43)cc2)cc1", "activity change, negative = inhibition": "inactive: -0.775%"}, {"smiles": "Cc1ccccc1C(=O)N1CCC(C(=O)Nc2ccc(F)cc2F)CC1", "activity change, negative = inhibition": "inactive: 3.6%"}, {"smiles": "Cc1ccc(S(=O)(=O)c2nc(-c3ccccc3F)oc2NCc2ccccc2)cc1", "activity change, negative = inhibition": "inactive: -11.5%"}, {"smiles": "Cc1nc(N2CCOCC2)c2c(C(=O)N3CCN(c4ccccc4)CC3)c(C)oc2n1", "activity change, negative = inhibition": "inactive: 3.64%"}, {"smiles": "CCOC(=O)c1cccc(NC(=O)NC(C)c2c(-n3cccc3)sc3c2CCN(C)C3)c1", "note": "(stereo not drawn)", "activity change, negative = inhibition": "inactive: -8.72%"}, {"smiles": "Cc1cc2c(cc3c(SCC(=O)Nc4ccc(Cl)cc4F)nncn32)o1", "activity change, negative = inhibition": "inactive: 1.09%"}, {"smiles": "COCCCN1C(=O)c2oc3ccccc3c(=O)c2C12C(=O)N(C)c1ccccc12", "note": "(stereo not drawn)", "activity change, negative = inhibition": "inactive: 5.92%"}, {"smiles": "O=C(COc1ccccc1F)Nc1ccc(OCc2cc(=O)n3ccccc3n2)cc1", "activity change, negative = inhibition": "inactive: -1.64%"}, {"smiles": "CCOc1ccc(NC(=O)CCc2c(C)nc3c(-c4ccccc4)c(C)nn3c2C)cc1", "activity change, negative = inhibition": "inactive: -4.69%"}, {"smiles": "COC(=O)c1ccc(Cn2c(SCc3ccc(F)cc3)nc3ccncc32)cc1", "activity change, negative = inhibition": "inactive: -6.29%"}, {"smiles": "Cc1ccc(CNC(=O)CSC2=Nc3ccccc3N=C(c3ccc(F)cc3)C2)cc1", "activity change, negative = inhibition": "inactive: -5.3%"}, {"smiles": "O=c1ccc2cc(S(=O)(=O)Nc3ccc(OC(F)(F)F)cc3)ccc2[nH]1", "activity change, negative = inhibition": "inactive: 6.37%"}, {"smiles": "Cc1cc(C)cc(NC(=O)c2c(C)oc3nc(C)nc(N4CCCC4)c23)c1", "activity change, negative = inhibition": "inactive: -4.33%"}, {"smiles": "CC(C)CCn1c(=O)c2cccnc2n(CC(=O)Nc2ccccc2F)c1=O", "activity change, negative = inhibition": "inactive: -8.94%"}, {"smiles": "Cn1c2ccccc2c2cnn(CC(=O)Nc3ccccc3F)c(=O)c21", "activity change, negative = inhibition": "inactive: -8.94%"}, {"smiles": "CCOc1ccc(Nc2nn(-c3ccc(OC(F)(F)F)cc3)nc2C(C)=O)cc1", "activity change, negative = inhibition": "inactive: -0.187%"}, {"smiles": "CCc1ccc(OCC(=O)Nc2ncn[nH]2)c(Br)c1", "activity change, negative = inhibition": "inactive: -3.52%"}, {"smiles": "COc1cccc(Cn2c(-c3nonc3NC(C)=O)nc3ccccc32)c1", "activity change, negative = inhibition": "inactive: -3.17%"}, {"smiles": "COc1cccc(-c2noc(-c3cc(C(C)C)[nH]n3)n2)c1OC", "activity change, negative = inhibition": "inactive: 0.226%"}, {"smiles": "COc1ccccc1CNC(=O)CCNS(=O)(=O)c1ccc2c(c1)oc(=O)n2C", "activity change, negative = inhibition": "inactive: 1.83%"}, {"smiles": "O=C(COc1ccc(F)cc1)NCc1ccc2c(c1)CCN2C(=O)c1ccccc1", "activity change, negative = inhibition": "inactive: -18.2%"}, {"smiles": "CNC(=O)c1ccc2c(c1)N(Cc1ccccc1Cl)C(=O)c1ccccc1S2", "activity change, negative = inhibition": "inactive: 0.0694%"}, {"smiles": "Cc1cccc(NC(=O)c2sc3nc(-c4cc5ccc(O)cc5oc4=O)[nH]c(=O)c3c2C)c1", "activity change, negative = inhibition": "inactive: 5.66%"}, {"smiles": "O=C(Cn1c(=O)nc(-c2ccccc2F)c2cc(Cl)ccc21)NCCCc1ccccc1", "activity change, negative = inhibition": "inactive: -18.5%"}, {"smiles": "COc1ccc(N2CCN(Cc3nnc(-c4ccc5c(c4)OCO5)o3)CC2)cc1", "activity change, negative = inhibition": "inactive: -0.913%"}, {"smiles": "Cc1ccc2c(c1)c1c3n2CCN(C(=O)c2cccc(C(F)(F)F)c2)C3CCC1", "note": "(stereo not drawn)", "activity change, negative = inhibition": "inactive: -10.2%"}, {"smiles": "CCc1cccc(C)c1Nc1c(-c2ccsc2)nc2ncccn12", "activity change, negative = inhibition": "inactive: 9.44%"}, {"smiles": "Cc1ccc(C)c(Cn2c3ccccc3c3cnn(CC(=O)NCCc4ccccc4)c(=O)c32)c1", "activity change, negative = inhibition": "inactive: -10.6%"}, {"smiles": "Clc1ccc(-c2noc(-c3cccnc3NCc3ccco3)n2)cc1", "activity change, negative = inhibition": "inactive: 0.876%"}, {"smiles": "Cc1ccc(-n2nc(C)c3nc(CCC(=O)Nc4cccc(F)c4)c(=O)n(C)c32)cc1", "activity change, negative = inhibition": "inactive: 0%"}, {"smiles": "Cc1cccc(CNC(=O)CCCN2C(=O)CCn3nc(-c4cccn4C)cc32)c1", "activity change, negative = inhibition": "inactive: -4.83%"}, {"smiles": "CCOc1c(Cl)cc(C(=O)N(Cc2ccc(N(C)C)cc2)Cc2ccco2)cc1Cl", "activity change, negative = inhibition": "inactive: 0.0842%"}, {"smiles": "COc1ccc(CNC(=O)C2CCCN(c3nnc(C)c4c(C)n(-c5ccc(C)cc5)nc34)C2)cc1", "note": "(stereo not drawn)", "activity change, negative = inhibition": "inactive: -14.4%"}, {"smiles": "CCC(Sc1nc2ncccc2o1)C(=O)Nc1ccc(OC)c(OC)c1", "note": "(stereo not drawn)", "activity change, negative = inhibition": "inactive: 0%"}, {"smiles": "COc1ccc(C2CC(=O)c3cc(-c4nc(-c5cccc(Cl)c5)cs4)c(=O)[nH]c3C2)cc1", "note": "(stereo not drawn)", "activity change, negative = inhibition": "inactive: 4.65%"}, {"smiles": "Cc1ccc2c(=O)cc(C(=O)Nc3sc4c(c3C(=O)NCC3CCCO3)CCCC4)oc2c1", "note": "(stereo not drawn)", "activity change, negative = inhibition": "inactive: 0.491%"}, {"smiles": "CCOc1ccccc1N(C)C(=O)c1c2c(nc3ccccc13)C(=O)N(C1CCCCC1)C2", "activity change, negative = inhibition": "inactive: -1.02%"}, {"smiles": "O=S(=O)(c1ccc(Cl)cc1Cl)n1ccnc1", "activity change, negative = inhibition": "inactive: -1.32%"}, {"smiles": "CSc1oc(-c2cccs2)nc1S(=O)(=O)c1ccc(Br)cc1", "activity change, negative = inhibition": "inactive: 2.88%"}]}]}
